Data from the supplement of paper PMC3334620.
Over roughly 33,000 sequences, “E-score (-0.5 to 0.5)” has its median near -0.053; the highest 2% begin near 0.37. This is one part of the list.

target: Hap1 (UniProt P0CE41); assay: PBM E-score (8-mer binding enrichment) (E-score (-0.5 to 0.5)); higher = stronger / more preferred TF binding; most listed sequences are background and not binding sites; settings: protein concentration: 200 nM; construct: GST-DNA-binding domain
Outline: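 Universal all-10-mer Agilent arrays, fresh or stripped once, were converted to double-stranded form by primer extension. GST-tagged yeast transcription factors from PURExpress in vitro transcription/translation, full-length or DNA-binding domain only, were applied at about 100-200 nM and detected with fluorescent anti-GST. After masliner normalisation, the Universal PBM Analysis Suite scored each ungapped eight-base word together with its reverse complement by E-score.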

UniProt P0CE41, sequence (P0CE41 whole entry, the tested form may be a part): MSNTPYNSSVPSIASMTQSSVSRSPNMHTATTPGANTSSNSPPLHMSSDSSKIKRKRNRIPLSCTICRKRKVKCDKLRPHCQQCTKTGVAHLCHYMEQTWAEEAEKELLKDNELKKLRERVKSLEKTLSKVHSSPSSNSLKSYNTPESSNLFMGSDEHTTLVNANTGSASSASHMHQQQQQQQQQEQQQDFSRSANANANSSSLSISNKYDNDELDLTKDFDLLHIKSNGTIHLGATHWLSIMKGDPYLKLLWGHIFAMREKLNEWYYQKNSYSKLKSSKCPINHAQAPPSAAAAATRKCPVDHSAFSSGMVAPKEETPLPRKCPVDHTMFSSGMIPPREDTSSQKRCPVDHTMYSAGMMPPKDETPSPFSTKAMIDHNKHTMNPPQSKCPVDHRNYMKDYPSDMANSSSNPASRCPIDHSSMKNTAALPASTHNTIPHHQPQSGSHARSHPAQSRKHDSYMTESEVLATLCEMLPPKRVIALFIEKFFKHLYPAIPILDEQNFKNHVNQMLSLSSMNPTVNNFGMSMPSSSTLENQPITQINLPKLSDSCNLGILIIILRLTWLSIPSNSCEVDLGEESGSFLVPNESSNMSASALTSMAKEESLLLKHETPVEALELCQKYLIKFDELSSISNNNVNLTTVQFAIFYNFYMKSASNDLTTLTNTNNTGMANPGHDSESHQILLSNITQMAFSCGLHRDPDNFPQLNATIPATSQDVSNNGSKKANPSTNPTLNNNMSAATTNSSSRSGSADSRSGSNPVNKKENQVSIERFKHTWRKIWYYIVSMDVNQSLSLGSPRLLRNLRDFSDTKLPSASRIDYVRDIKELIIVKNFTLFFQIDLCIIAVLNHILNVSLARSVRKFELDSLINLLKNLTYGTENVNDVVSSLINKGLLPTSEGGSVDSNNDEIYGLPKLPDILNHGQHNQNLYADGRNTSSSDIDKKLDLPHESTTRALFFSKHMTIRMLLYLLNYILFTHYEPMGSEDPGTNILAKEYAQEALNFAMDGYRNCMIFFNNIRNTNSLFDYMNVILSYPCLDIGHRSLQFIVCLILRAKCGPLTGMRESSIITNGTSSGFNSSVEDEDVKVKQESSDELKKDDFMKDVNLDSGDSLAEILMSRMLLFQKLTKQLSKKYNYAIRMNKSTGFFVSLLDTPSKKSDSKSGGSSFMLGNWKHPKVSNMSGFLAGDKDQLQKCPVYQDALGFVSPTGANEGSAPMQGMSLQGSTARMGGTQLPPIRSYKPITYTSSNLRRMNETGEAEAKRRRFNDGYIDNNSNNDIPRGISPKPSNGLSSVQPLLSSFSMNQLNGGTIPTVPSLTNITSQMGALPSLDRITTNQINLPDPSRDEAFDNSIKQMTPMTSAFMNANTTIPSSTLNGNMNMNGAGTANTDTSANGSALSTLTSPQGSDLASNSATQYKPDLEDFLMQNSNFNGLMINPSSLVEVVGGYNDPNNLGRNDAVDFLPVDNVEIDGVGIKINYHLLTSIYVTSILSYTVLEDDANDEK

Sequence | PBM E-score
CCATTACA | 0.074
GAGGGCAC | -0.145
TCTAAGAA | -0.033
ACAATTAC | -0.213
AGACCGCG | 0.108
ACTCGTAG | -0.152
GCCAGCGC | -0.134
AACCCCTA | -0.166
GCCGGGCA | 0.301
AGAGATAG | -0.0547
ATACTTGA | -0.347
ACTTTGGG | -0.0641
AAGGTACG | -0.168
CAGACTGC | -0.327
GTGAATGA | 0.038
GCAATGCA | -0.206
AGAGCCTG | -0.33
ACTGGTTG | -0.078
AGTCAGAC | -0.115
GAAAATGC | -0.102
CCTATCAG | -0.147
AGCCGATC | 0.245
CAGATACC | 0.106
ATCAACGG | 0.148
ATTTGTGC | -0.17

Sequence | PBM E-score
CCACCTGG | -0.268
ATGTTTCG | 0.0559
CGTGGTAA | -0.202
ATCCACCG | 0.271
CCCTTGAA | -0.101
ACCGCTAT | 0.289
TAAGGAGA | -0.0462
CATTACAC | -0.0909
GGTTCTAA | 0.191
CGATATGC | 0.242
CCTCTTTC | -0.0145
GTCCACCA | -0.128
CAGTTTGG | -0.204
GCGTGAGC | -0.0131
AGTAGTCC | 0.242
CTCTAGTA | 0.00181
AATTCTTC | 0.0658
GCTCGTGA | -0.155
ACCACGAT | -0.123
CTCTAACA | -0.26
AAGTGGCG | -0.0765
CATTCTGG | -0.192
CTGAAGGA | -0.21
AATGAATG | -0.131
AGACTCAA | -0.141

Sequence | PBM E-score
CTAAAACA | -0.217
CCTCGGTC | 0.298
CATTAGAG | -0.137
CTTAGAAC | -0.0393
CATCCGGA | 0.423
ACCCACCA | -0.133
ATGTCGAA | -0.117
GGGGCGGA | 0.257
TACACTCA | -0.195
CATACACA | -0.322
AATTAAAA | 0.0139
ATTCCCGA | 0.395
ACGTTTAC | -0.0752
TGTTTTAA | -0.106
CGAATGGA | 0.0263
GATTAAAA | 0.0144
CACATGGC | -0.149
AGAAGACC | 0.0374
AGGTTCAT | -0.0331
CGTAACTC | -0.0267
CATACCAC | -0.0616
CCGCGTGC | 0.0757
TAGTGTGA | -0.346
AGTCGCGA | 0.0781
AGCTATCC | 0.145

Sequence | PBM E-score
ACAAATGG | -0.241
CTGTACTA | 0.00852
CTACACGC | -0.305
AAGTTACA | -0.157
CCTGCCGA | 0.156
TCCATAGA | -0.0299
GTACACTA | -0.23
CTATGGCC | 0.0369
CCCGAGGC | 0.29
ATGCCAAG | -0.149
CCAACTCG | -0.0521
ACGGGTTA | 0.0135
CCCTGGAA | -0.11
AGCACGGA | 0.193
ACACACCC | 0.117
TGGATAAA | -0.0137
ACGTATCC | -0.0362
CGTTGTCC | 0.198
CCCGGGAC | 0.368
TCACAAAA | 0.122
CTTGTGTC | -0.149
CCTTAAAC | -0.0115
CGGACCGA | 0.423
ACCTCGAG | 0.0583
CACCGCGG | 0.252

Sequence | PBM E-score
ACCTCACA | -0.123
CATTATTA | -0.0137
GCAAGGTA | -0.289
CAGCCCCA | -0.108
CCTATGAA | -0.146
GGATACAA | 0.0871
TGGGGACA | -0.185
AGACATTA | -0.00366
GAGTCTCA | -0.179
CAAAGGCG | -0.135
ATTGTGAA | -0.0788
ACTTACTA | -0.118
CTTTCTAA | -0.155
ATACCCCA | 0.144
AGGATCAA | -0.0251
ATAATCTG | -0.205
AAATCCCT | -0.166
ACCCCACC | 0.223
CAAGATCA | -0.211
CGACTCAG | -0.012
CGAGAGAG | 0.0776
AACATTCA | -0.108
GGCGGCCC | 0.0993
CCATTAGG | -0.215
GTCGTTGA | -0.185

Sequence | PBM E-score
CGAACGAG | -0.0115
AATACGAC | -0.118
AGCGGCTC | 0.0902
AATCTGGA | -0.0478
GGCCATAA | 0.159
CCGGATAC | 0.323
AATACATC | 0.172
AGTTCTGA | -0.244
CGCGTATC | 0.0758
AGGTAATC | -0.00721
ATTCCGGG | 0.374
AAAGGGCA | -0.0877
ATAAGACA | -0.0811
TGGGAACA | -0.103
CAACTTCA | -0.167
CTGCTTAC | -0.13
AGCCCACG | -0.131
ACAACAGC | -0.124
ACGCAAAG | -0.0974
AAAGTCCT | 0.157
GTGTCTAA | -0.299
ACGACTTG | -0.182
CATGAAGA | -0.192
AAGGGAGT | -0.234
GTCCTATA | -0.0558

Sequence | PBM E-score
AGACGAAG | -0.142
AACGTGGA | -0.211
AAATGCAA | -0.279
CGACGATA | 0.14
CTGTTCTC | 0.0705
CGCGAACC | 0.202
ATTCCTGC | -0.0313
CGACAAAG | 0.0926
AAGTTTTC | 0.00231
GAGTCTCC | 0.187
CCCTCGGC | 0.268
CAAATCTA | -0.217
GCAAACAC | -0.0606
CAGAACGC | -0.00429
GAACCCGA | 0.23
GCACTACC | -0.0847
GAATGAAC | -0.00381
AGGTAACA | -0.238
GCAATCCC | 0.256
AAGCAGCG | -0.0753
ACAGTCGA | -0.261
AAAAGAAA | -0.0223
